Measurements from the antibiotic and cytotoxicity screens of Wong et al. (2023).
This is one part of the list.

Tests used:
[1] = system: HSkMC (human skeletal muscle cells); assay: cytotoxicity call (relative viability < 0.9); details: 10 µM
[2] = system: HepG2; assay: cytotoxicity call (relative viability < 0.9); details: 10 µM
[3] = system: S. aureus RN4220; assay: growth inhibition call (relative growth <= 0.2); details: 50 µM

Compound	cytotoxicity call [1]	cytotoxicity call [2]	growth inhibition call [3]
Cc1noc(C)c1S(=O)(=O)Nc1ccc2c(c1)C(=O)N([C@@H](C)CO)C[C@@H](C)[C@@H](CN(C)CC1CC1)O2	inactive	inactive	inactive
Cc1ccc(S(=O)(=O)Nc2ccc3c(c2)CC(=O)N([C@H](C)CO)C[C@H](C)[C@H](CN(C)S(C)(=O)=O)O3)cc1	inactive	inactive	inactive
C[C@H]1CN([C@@H](C)CO)S(=O)(=O)c2ccc(C#CC3(O)CCCC3)cc2O[C@@H]1CN(C)C(=O)Nc1ccccc1	inactive	inactive	inactive
C[C@@H]1CN([C@@H](C)CO)S(=O)(=O)c2ccc(C#Cc3ccncc3)cc2O[C@H]1CN(C)C(=O)C1CCCCC1	inactive	active	inactive
CC[C@H](C)[C@H](N)C1=N[C@H](C(=O)N[C@@H](CC(C)C)C(=O)N[C@H](CCC(=O)O)C(=O)N[C@H](C(=O)N[C@H]2CCCCNC(=O)[C@H](CC(N)=O)NC(=O)[C@@H](CC(=O)O)NC(=O)[C@H](Cc3cnc[nH]3)NC(=O)[C@@H](Cc3ccccc3)NC(=O)[C@H]([C@@H](C)CC)NC(=O)[C@@H](CCCN)NC2=O)[C@@H](C)CC)CS1	inactive	inactive	active
N#CCC12CC3CC(CC(C3)C1)C2	inactive	inactive	inactive
COc1ccc(NC(=O)Nc2cccc3c2O[C@@H](CN(C)Cc2ccc(Cl)c(Cl)c2)[C@@H](C)CN([C@@H](C)CO)C3=O)cc1	inactive	inactive	inactive
COc1ccc([Si](C)(C)[C@H]2[C@H](CCO)O[C@@]3(C(=O)N(Cc4ccc(N(C=O)c5ccccc5)cc4)c4ccccc43)[C@@H]2C)cc1	inactive	active	inactive
C[C@@H]1CN([C@@H](C)CO)C(=O)c2cccc(NC(=O)Nc3ccccc3)c2O[C@H]1CN(C)C(=O)Nc1ccc(C(F)(F)F)cc1	inactive	inactive	inactive
CCSC(=N)N	inactive	inactive	inactive
C[C@@H]1CN([C@@H](C)CO)C(=O)Cc2cc(NC(=O)Cn3cnnn3)ccc2O[C@@H]1CN(C)Cc1ccc(Cl)c(Cl)c1	inactive	inactive	inactive
CNC(=O)c1cccc(CN)c1	inactive	inactive	inactive
C[C@H]1CN([C@@H](C)CO)C(=O)c2cc(NC(=O)Cc3cn(C)c4ccccc34)ccc2O[C@H]1CN(C)S(C)(=O)=O	inactive	inactive	inactive
